# The supplement of paper PMC3334620
# Over roughly 33,000 sequences, “E-score (-0.5 to 0.5)” has its median near -0.04; the highest 2% begin near 0.36. The list shows a part of the results.
# Molecular target: T1, Hmlalpha2 (UniProt P0CY09)
# T1 sequence: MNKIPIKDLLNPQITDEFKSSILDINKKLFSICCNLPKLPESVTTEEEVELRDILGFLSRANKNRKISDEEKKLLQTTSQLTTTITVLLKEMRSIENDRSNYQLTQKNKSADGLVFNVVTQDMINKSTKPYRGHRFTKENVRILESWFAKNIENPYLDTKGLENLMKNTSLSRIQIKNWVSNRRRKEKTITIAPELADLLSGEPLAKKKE
# Test: PBM E-score (8-mer binding enrichment) (E-score (-0.5 to 0.5)); higher = stronger / more preferred TF binding; most listed sequences are background and not binding sites
# Settings: protein concentration: 200 nM; construct: GST-full length
# Summary of the method: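 GST-tagged yeast TFs (full-length or DNA-binding domain) were made by PURExpress in vitro transcription/translation and applied at about 100-200 nM to universal all-10-mer Agilent arrays. The arrays were made double-stranded by primer extension, on fresh or once-stripped slides. Bound protein was detected with fluorescent anti-GST, and scans were normalised with masliner. Each ungapped eight-base word, pooled with its reverse complement, received an E-score (modified Wilcoxon-Mann-Whitney statistic) from the Universal PBM Analysis Suite.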
row,Sequence,PBM E-score
1,AAATAGGG,-0.0284
2,GGCACTTA,-0.122
3,CAGTTAGG,-0.079
4,AGTCTTAG,-0.126
5,ATTGTACC,0.0764
6,CTCACGGC,-0.214
7,CACAGCTG,-0.0556
8,GGTACCGA,-0.236
9,TACGCCGA,0.0108
10,ACGCAGGG,0.163
11,CGTTTAAG,-0.102
12,AAGCGGGG,-0.0783
13,AGCTCAGC,0.00776
14,AACCATCG,0.0926
15,CTCGGTGC,-0.0932
16,GAAAAACC,-0.0498
17,AAATTTAC,0.375
18,CGCACTGC,-0.0457
19,CACCGCCA,-0.107
20,CAATTGCC,-0.12
21,GCGTCGCC,0.0305
22,CGGTTCTA,-0.13
23,ATGCCCAC,-0.109
24,CTCCAACC,-0.12
25,CCCCAGGG,-0.397

row,Sequence,PBM E-score
1,TAGAGAGA,-0.158
2,GTGATAAC,0.212
3,AGAGATGG,0.00818
4,ACAAATCA,0.116
5,GGATCACA,0.0466
6,AAGCCCGG,-0.287
7,AGATACCC,-0.196
8,CGCTCATA,-0.169
9,GACGAATC,0.0541
10,AGTAACAG,0.0731
11,ACATGAGC,0.335
12,GAACGATA,-0.104
13,ACCTCTGG,-0.183
14,CAGACCCC,-0.279
15,AAACCCTA,-0.0109
16,CAAAAACG,0.109
17,CTCGAAAA,-0.0219
18,CGGGGGCA,-0.292
19,CAACCAAG,0.0194
20,CCTTAGTA,-0.0554
21,CAACGACA,0.182
22,AACTCCGC,-0.135
23,CAGACCTA,-0.0166
24,CGGAGCAC,-0.16
25,ATCCTACA,0.0889

row,Sequence,PBM E-score
1,CGCAAGGC,-0.06
2,ATCATGCG,-0.0811
3,CGCGGGTC,0.0398
4,ATTCAAAG,0.0343
5,CGTAACAG,0.19
6,ACGGGGAG,-0.235
7,TGGTTGAA,-0.00825
8,GGCTAAAC,0.0125
9,GATAAATA,0.121
10,ATGATCCC,-0.241
11,CACCGAAG,-0.0848
12,AACGTCAC,0.00799
13,GGATTATA,-0.105
14,GGGCGCAA,0.00447
15,AAATTCAC,0.107
16,AGTTCGAG,0.0484
17,AATCCCCG,-0.16
18,ATCCGGGC,-0.318
19,TAAGTCGA,-0.0631
20,GTTCGATA,0.118
21,AGGCCCCC,-0.305
22,ACGTGAGA,0.0567
23,ACTTATGA,-0.0223
24,GCTTTTTA,0.0735
25,CTGGATAA,-0.108

row,Sequence,PBM E-score
1,ACCTTGGA,-0.128
2,AGAGAGTG,-0.159
3,AAAGGTCC,-0.0395
4,CTAGTGTC,-0.0696
5,GTTCTCGA,0.00834
6,AGGACGTG,-0.0262
7,AATTAATT,0.284
8,AGTTCTAA,0.00203
9,CATACGCC,0.0271
10,ACCACGCA,0.106
11,AGTGACTC,-0.191
12,GAGTTGGC,-0.0218
13,AGTAAGGC,-0.106
14,CCGGAAGA,-0.06
15,AACCGACG,-0.0509
16,AAACCATC,0.0802
17,CCCCAATA,-0.158
18,CGTTGATA,0.174
19,GGGCCAAA,-0.124
20,ATTCAATC,0.0769
21,GTTCCAGA,-0.102
22,GCAGCAGC,0.0731
23,ACGACGCG,0.302
24,ACGTACAG,0.0878
25,CACTGTGG,-0.147

row,Sequence,PBM E-score
1,AGGAGATG,-0.157
2,TAGACTAA,-0.0309
3,GCACATCA,-0.0833
4,GAAGGTCC,-0.194
5,GGTCAATA,-0.0809
6,ATGGTTCG,0.106
7,CGATGGGA,-0.232
8,TGGGTTAA,0.186
9,ACGTTACC,0.184
10,GTGTCACA,0.124
11,CCAGGGAA,-0.265
12,ACACCTGG,-0.0725
13,ATTTGCCA,-0.174
14,AGATAACT,-0.0355
15,TCTCACCA,-0.0591
16,GCGGATCA,-0.043
17,CATATGCC,-0.196
18,GGTGCGTA,0.281
19,AAAATTTG,0.0975
20,AGCGCTCC,-0.19
21,GGAGCACA,-0.0839
22,ATGGTGTA,0.249
23,CCACAGCA,0.0519
24,CATCTTGC,-0.0141
25,ACCGCAAT,0.0585

row,Sequence,PBM E-score
1,AACACGCG,0.406
2,ATGCTAAA,0.166
3,CAAAAATC,-0.0271
4,AGCGTAAA,0.22
5,GTAACCGA,0.0834
6,ATGAAGTG,-0.16
7,CTGAGAGA,-0.177
8,ATCAGTGC,-0.0196
9,AAGCTATC,0.0382
10,AAAAGCGT,-0.115
11,CAGGAACG,0.0165
12,ATGTACGA,0.281
13,GTAATTCA,0.346
14,GCCATGAC,-0.186
15,ACGGGTAG,0.123
16,CGACAGGC,-0.248
17,ACCTCCAG,-0.157
18,AACCGGAT,0.0919
19,ATGTTCCG,0.061
20,GATCATCC,-0.256
21,CCCGCACC,-0.26
22,ACAATTAG,0.1
23,AGTGACGA,0.0683
24,AGAGACAT,0.00684
25,AGAGTTTA,0.167

row,Sequence,PBM E-score
1,CACGTCCG,-0.0887
2,GGGGTTAA,-0.118
3,CGGACGGA,-0.198
4,ACCAATCC,-0.147
5,GACACTGA,-0.18
6,CCTTGAAC,0.0776
7,AAACTGGT,-0.0472
8,GTAGCACA,-0.0675
9,GAGTGTAC,0.0265
10,CTCAAATA,-0.131
11,GGTAAGAC,-0.144
12,CTGATTTA,0.107
13,CTTATACA,0.252
14,AGCTGGAT,-0.116
15,ACAAGGCC,0.176
16,ATCATGGG,-0.0934
17,AGCGTACA,0.094
18,AGGCCCGG,-0.319
19,CCCCCGAG,-0.419
20,AGAAGTTA,0.177
21,GGGCAACA,-0.131
22,CACAAGCA,0.0703
